Measurements taken from the supplement of paper PMC10338343.
± gives the standard deviation. The entries are a selection whose mix differs from that of the whole data set.

Each sequence was assayed on MIWI (PIWIL1) piRISC loaded with L1MC piRNA (30 nt) (assay: pre-steady-state target cleavage rate (min^-1); MIWI and MILI are mouse PIWI proteins and EfPiwi is from a freshwater sponge; tags in brackets are library labels; higher = faster piRNA-guided slicing of the target). Settings: guide: L1MC piRNA 5'p-UAACUAAAUACUAUGCAAGCUGUAGGUCCU; auxiliary factor: 500 nM mouse GTSF1.
Outline: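 Cleave-'n-Seq: 1 nM active affinity-purified piRISC with one synthetic guide and 0.1 nM transcribed, DNA-blocked target RNA library were mixed, with or without 500 nM GTSF1 partner protein, in HEPES–potassium acetate buffer at 33 °C for 0–8 or 0–960 min. Uncleaved targets were sequenced and normalised to depth and to weakly complementary targets, three trials were pooled, and k3 was capped at 0.0001 min^-1. The pre-steady-state cleavage rate was fitted […].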
With AGGACGUACAGCUUGCAUAGUAUUUACUUA the “pre-steady-state target cleavage rate” value was 0.241 ± 0.037.
With UCCUGGAACAGACUUGCAUAGUAUUUAGUUA the “pre-steady-state target cleavage rate” value was 0.798 ± 0.048.
For UCCUGGAACAGCUUGCUUAGUAUUUACUUA, the “pre-steady-state target cleavage rate” value was 0.443 ± 0.044.
In the case of UCGACCAUCAGCUUGCAUAGUAUUUACAAA, the “pre-steady-state target cleavage rate” value is reported as 0.323 ± 0.03.
For UCCUCCUUCAGCAUGCAUAGUAUUUAGUUA, the “pre-steady-state target cleavage rate” value was 1.01 ± 0.043.
UCCUGGAUGCGCUUGCAUAGUAUUUAGUUA was tested, and the “pre-steady-state target cleavage rate” value was 0.98 ± 0.053.
UCCUGCUACAGCUUGCAUAGAUUUUAGUUA was tested, and the “pre-steady-state target cleavage rate” value was 0.117 ± 0.012.
For UCCUGGAUGAGCUUGCAAAGAAUUUAGUUA, the “pre-steady-state target cleavage rate” value was 0.0445 ± 0.007.
In the case of UCCUGGAACCGCUUGCAUAGUAUUUAGUUA, the “pre-steady-state target cleavage rate” value is reported as 0.935 ± 0.055.
With UGGACCUUCAGCUUGCAAAGUAUUUAGUUA the “pre-steady-state target cleavage rate” value was 1.34 ± 0.073.
In the case of UCCUGCUACAGCUUGCAUACUAUUUAGAUA, the “pre-steady-state target cleavage rate” value is reported as 0.145 ± 0.033.
In the case of UCCUCCUACAGCUAGCAUAGUAUUUAGUUA, the “pre-steady-state target cleavage rate” value is reported as 0.838 ± 0.03.
With UCCUGGAACAGCUUCAUAGUAUUUAGUUA the “pre-steady-state target cleavage rate” value was 0.95 ± 0.051.
In the case of UCCUGCUACAGCUUGCAUAGUAUUUAUUUA, the “pre-steady-state target cleavage rate” value is reported as 0.418 ± 0.057.
In the case of AGGACCUACAGCUUGCAUAGUUAUUAGUAA, the “pre-steady-state target cleavage rate” value is reported as 0.225 ± 0.041.
For “UCCUGGAUGUCCUUGCAUAGUAUUUAGUUU [g2:g19:cont:t1U]”, the “pre-steady-state target cleavage rate” value was 0.171 ± 0.028.
For UCCUCCUACAGGUUGCAUAGUAUUUACUUA, the “pre-steady-state target cleavage rate” value was 0.186 ± 0.027.
With UCGACCUACACCUUGCUUAGUAUUUAGUUA the “pre-steady-state target cleavage rate” value was 1.07 ± 0.052.
For UCGACCUACAGCUUGCUUAGUAUUUACUUA, the “pre-steady-state target cleavage rate” value was 0.758 ± 0.055.
UCCUGGAUGUCCUUGCGUAGUAUUUAGUUA was tested, and the “pre-steady-state target cleavage rate” value was 0.0144 ± 0.0036.
UCCUGGAUCAGGUUGCAUAGUAUUUAGUAA was tested, and the “pre-steady-state target cleavage rate” value was 0.377 ± 0.037.
For UCCUGGAUGUGCAUGCAUAGUAUUAAGUUA, the “pre-steady-state target cleavage rate” value was 0.0132 ± 0.0032.
With AGGUCCUAGAGCUUGCAUAGUAUUUAGUUA the “pre-steady-state target cleavage rate” value was 1.08 ± 0.057.
AGGACCUACAGCUUGCAUACUAUUUACAAA was tested, and the “pre-steady-state target cleavage rate” value was 0.191 ± 0.031.
For UCCUGGAUGUCCUUGCAAAGUAUUUAGUUA, the “pre-steady-state target cleavage rate” value was 0.0368 ± 0.0092.
In the case of AGGACCUACACUUGCAUAGUAUUUAGUUA, the “pre-steady-state target cleavage rate” value is reported as 1.15 ± 0.043.
For UGGACCUACAGCUUGGAUACUAUUUAGUUA, the “pre-steady-state target cleavage rate” value was 0.318 ± 0.028.
UCCUGGUACAGCUUGCAAAGUAUUUUGUUA was tested, and the “pre-steady-state target cleavage rate” value was 0.372 ± 0.046.
For UGGUACCUACAGCUUGCAUAGUAUUUAGUUA, the “pre-steady-state target cleavage rate” value was 0.945 ± 0.17.
UCCUCCUACAGCUUGCAUAGAUUUUAGUUA was tested, and the “pre-steady-state target cleavage rate” value was 0.156 ± 0.022.
UCCUGGAACAGCUUGCAAUAGUAUUUAGUUA was tested, and the “pre-steady-state target cleavage rate” value was 0.0544 ± 0.011.
For UCCUGGAACAGCUUGCAUGGUAUUUAGUUA, the “pre-steady-state target cleavage rate” value was 1.22 ± 0.058.
For UCCUGGAUCAGCUUGCAUUCUAUUUAGUUA, the “pre-steady-state target cleavage rate” value was 0.052 ± 0.0078.
In the case of ACGACCUACAGCUUGCAUACUAUUUAGUUA, the “pre-steady-state target cleavage rate” value is reported as 0.453 ± 0.022.
In the case of UCCUGGUACAGCUUGGAUAGUUUUUAGUUA, the “pre-steady-state target cleavage rate” value is reported as 0.209 ± 0.048.
For UCCUGGAUGAGCUUGCAGAGUAUUUAGUUA, the “pre-steady-state target cleavage rate” value was 0.31 ± 0.022.
In the case of UCCUGGAUGAGCUUGCAUAGAAUUUACUUA, the “pre-steady-state target cleavage rate” value is reported as 0.102 ± 0.027.
For UCCUGGUACAGCUAGCAUACUAUUUAGUUA, the “pre-steady-state target cleavage rate” value was 0.316 ± 0.051.
For UCCUCCUACAGCUUCCAUAGUAUUUAGUUA, the “pre-steady-state target cleavage rate” value was 0.0782 ± 0.022.
UGGACCUACAGGAUGCAUAGUAUUUAGUUA was tested, and the “pre-steady-state target cleavage rate” value was 1.02 ± 0.082.

Same assay, conditions: guide: L1MC piRNA 5'p-UAACUAAAUACUAUGCAAGCUGUAGGUCCU; auxiliary factor: none (no GTSF1)
In the case of AGGACGUACAGCUUGCAUAGUAUUUACUUA, the “pre-steady-state target cleavage rate” value is reported as 0.0278 ± 0.0051.
UCCUGGAACAGACUUGCAUAGUAUUUAGUUA was tested, and the “pre-steady-state target cleavage rate” value was 0.0427 ± 0.0093.
With UCCUGGAACAGCUUGCUUAGUAUUUACUUA the “pre-steady-state target cleavage rate” value was 0.0281 ± 0.0068.
In the case of UCGACCAUCAGCUUGCAUAGUAUUUACAAA, the “pre-steady-state target cleavage rate” value is reported as 0.00722 ± 0.0017.
UCCUCCUUCAGCAUGCAUAGUAUUUAGUUA was tested, and the “pre-steady-state target cleavage rate” value was 0.0155 ± 0.0034.
With UCCUGGAUGCGCUUGCAUAGUAUUUAGUUA the “pre-steady-state target cleavage rate” value was 0.0486 ± 0.01.
In the case of UCCUGCUACAGCUUGCAUAGAUUUUAGUUA, the “pre-steady-state target cleavage rate” value is reported as 0.00384 ± 0.0023.
UCCUGGAUGAGCUUGCAAAGAAUUUAGUUA was tested, and the “pre-steady-state target cleavage rate” value was 0.00657 ± 0.0032.
UCCUGGAACCGCUUGCAUAGUAUUUAGUUA was tested, and the “pre-steady-state target cleavage rate” value was 0.0255 ± 0.0054.
UGGACCUUCAGCUUGCAAAGUAUUUAGUUA was tested, and the “pre-steady-state target cleavage rate” value was 0.0368 ± 0.0084.
For UCCUGCUACAGCUUGCAUACUAUUUAGAUA, the “pre-steady-state target cleavage rate” value was 0.00804 ± 0.0028.
With UCCUCCUACAGCUAGCAUAGUAUUUAGUUA the “pre-steady-state target cleavage rate” value was 0.016 ± 0.0034.
In the case of UCCUGGAACAGCUUCAUAGUAUUUAGUUA, the “pre-steady-state target cleavage rate” value is reported as 0.00772 ± 0.0027.
UCCUGCUACAGCUUGCAUAGUAUUUAUUUA was tested, and the “pre-steady-state target cleavage rate” value was 0.0102 ± 0.0029.
In the case of AGGACCUACAGCUUGCAUAGUUAUUAGUAA, the “pre-steady-state target cleavage rate” value is reported as 0.00977 ± 0.0039.
For “UCCUGGAUGUCCUUGCAUAGUAUUUAGUUU [g2:g19:cont:t1U]”, the “pre-steady-state target cleavage rate” value was 0.00862 ± 0.0025.
With UCCUCCUACAGGUUGCAUAGUAUUUACUUA the “pre-steady-state target cleavage rate” value was 0.0141 ± 0.0024.
UCGACCUACACCUUGCUUAGUAUUUAGUUA was tested, and the “pre-steady-state target cleavage rate” value was 0.0351 ± 0.006.
For UCGACCUACAGCUUGCUUAGUAUUUACUUA, the “pre-steady-state target cleavage rate” value was 0.0254 ± 0.0061.
With UCCUGGAUGUCCUUGCGUAGUAUUUAGUUA the “pre-steady-state target cleavage rate” value was 0.00687 ± 0.0021.
UCCUGGAUCAGGUUGCAUAGUAUUUAGUAA was tested, and the “pre-steady-state target cleavage rate” value was 0.00556 ± 0.0026.
UCCUGGAUGUGCAUGCAUAGUAUUAAGUUA was tested, and the “pre-steady-state target cleavage rate” value was 0.00357 ± 0.0033.
In the case of AGGUCCUAGAGCUUGCAUAGUAUUUAGUUA, the “pre-steady-state target cleavage rate” value is reported as 0.0655 ± 0.012.
AGGACCUACAGCUUGCAUACUAUUUACAAA was tested, and the “pre-steady-state target cleavage rate” value was 0.00474 ± 0.0026.
For UCCUGGAUGUCCUUGCAAAGUAUUUAGUUA, the “pre-steady-state target cleavage rate” value was 0.00699 ± 0.0019.
AGGACCUACACUUGCAUAGUAUUUAGUUA was tested, and the “pre-steady-state target cleavage rate” value was 0.0736 ± 0.016.
In the case of UGGACCUACAGCUUGGAUACUAUUUAGUUA, the “pre-steady-state target cleavage rate” value is reported as 0.0235 ± 0.0052.
UCCUGGUACAGCUUGCAAAGUAUUUUGUUA was tested, and the “pre-steady-state target cleavage rate” value was 0.0204 ± 0.0041.
UGGUACCUACAGCUUGCAUAGUAUUUAGUUA was tested, and the “pre-steady-state target cleavage rate” value was 0.117 ± 0.034.
UCCUCCUACAGCUUGCAUAGAUUUUAGUUA was tested, and the “pre-steady-state target cleavage rate” value was 0.00498 ± 0.0021.
UCCUGGAACAGCUUGCAAUAGUAUUUAGUUA was tested, and the “pre-steady-state target cleavage rate” value was 0.0038 ± 0.0026.
UCCUGGAACAGCUUGCAUGGUAUUUAGUUA was tested, and the “pre-steady-state target cleavage rate” value was 0.074 ± 0.02.
With UCCUGGAUCAGCUUGCAUUCUAUUUAGUUA the “pre-steady-state target cleavage rate” value was 0.00824 ± 0.0038.
In the case of ACGACCUACAGCUUGCAUACUAUUUAGUUA, the “pre-steady-state target cleavage rate” value is reported as 0.04 ± 0.0082.
In the case of UCCUGGUACAGCUUGGAUAGUUUUUAGUUA, the “pre-steady-state target cleavage rate” value is reported as 0.0179 ± 0.0054.
UCCUGGAUGAGCUUGCAGAGUAUUUAGUUA was tested, and the “pre-steady-state target cleavage rate” value was 0.0283 ± 0.0086.
For UCCUGGAUGAGCUUGCAUAGAAUUUACUUA, the “pre-steady-state target cleavage rate” value was 0.00595 ± 0.0027.
With UCCUGGUACAGCUAGCAUACUAUUUAGUUA the “pre-steady-state target cleavage rate” value was 0.0105 ± 0.0027.
UCCUCCUACAGCUUCCAUAGUAUUUAGUUA was tested, and the “pre-steady-state target cleavage rate” value was 0.00302 ± 0.0024.
For UGGACCUACAGGAUGCAUAGUAUUUAGUUA, the “pre-steady-state target cleavage rate” value was 0.0264 ± 0.0053.
